# Data taken from the BET-seq Pho4 binding data (Le et al. 2018).
# This is one part of the list. Values were computed here from the reads of four pooled replicates and scatter widely.
# Target: T1, Pho4 (S. cerevisiae) (UniProt P07270)
# T1 sequence: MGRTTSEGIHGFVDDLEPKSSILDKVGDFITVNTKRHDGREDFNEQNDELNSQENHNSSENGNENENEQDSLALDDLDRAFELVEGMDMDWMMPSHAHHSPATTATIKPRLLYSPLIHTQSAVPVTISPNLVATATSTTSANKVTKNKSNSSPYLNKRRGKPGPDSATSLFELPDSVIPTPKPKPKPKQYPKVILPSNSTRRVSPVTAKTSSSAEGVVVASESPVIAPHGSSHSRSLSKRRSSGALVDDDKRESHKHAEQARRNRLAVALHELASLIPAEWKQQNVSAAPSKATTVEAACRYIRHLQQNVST
# Test: relative binding free energy (BET-seq); higher = weaker binding
# Settings: reference: library average
row,Sequence,relative binding free energy
1,TTCGGCACGTGTGAAT,0.09 kcal/mol
2,GTTTTCACGTGACGGG,0.31 kcal/mol
3,AGGGACACGTGATCGT,0.15 kcal/mol
4,TGTGCCACGTGTATAT,-0.18 kcal/mol
5,ATGTGCACGTGTTTAG,0 kcal/mol
6,TGCGGCACGTGTACGG,-0.06 kcal/mol
7,ATAATCACGTGCGTGG,0.13 kcal/mol
8,TGAGTCACGTGTGATA,0.15 kcal/mol
9,TTAGTCACGTGCGGTT,0.08 kcal/mol
10,AGCGTCACGTGGGAGA,-0.01 kcal/mol
11,GGTGGCACGTGGCGTC,-0.05 kcal/mol
12,GTATCCACGTGGGAGT,-0.07 kcal/mol
13,TGGGCCACGTGAGAGA,0.23 kcal/mol
14,GCTCGCACGTGGCTGG,0.07 kcal/mol
15,ATGTTCACGTGGAGGG,0.27 kcal/mol
16,GAGAGCACGTGGGCTT,-0.08 kcal/mol
17,TGTTGCACGTGGAAGC,0.02 kcal/mol
18,GAGTTCACGTGGAGGA,0.27 kcal/mol
19,GGGCACACGTGGGCTG,-0.09 kcal/mol
20,TGTGACACGTGTATCG,0.21 kcal/mol
21,TAGAACACGTGGCGGT,-0.02 kcal/mol
22,CGAATCACGTGTGAGG,0.23 kcal/mol
23,TGCCTCACGTGTGTTA,0.19 kcal/mol
24,TGTAGCACGTGAGTGG,0.09 kcal/mol
25,ATTTACACGTGTGGGG,0.03 kcal/mol

row,Sequence,relative binding free energy
1,GAGAACACGTGGGGGC,0.02 kcal/mol
2,TAATGCACGTGCGGGA,-0.11 kcal/mol
3,TGGGACACGTGGAAGT,0.12 kcal/mol
4,GGAGTCACGTGTGGAG,0.23 kcal/mol
5,GAAGCCACGTGGGGTT,-0.14 kcal/mol
6,TAGGTCACGTGCTTAA,0.09 kcal/mol
7,CGGTGCACGTGATGGT,0.08 kcal/mol
8,CGGTGCACGTGAATAT,0.49 kcal/mol
9,TATGACACGTGTAGAG,0.09 kcal/mol
10,TAATACACGTGTGTAT,0 kcal/mol
11,CTGGTCACGTGTTGCG,0 kcal/mol
12,TAGGGCACGTGTATTC,-0.17 kcal/mol
13,GTGGGCACGTGGATGT,-0.16 kcal/mol
14,AAAGTCACGTGTTATG,0.07 kcal/mol
15,GTCTGCACGTGGTCTT,0.07 kcal/mol
16,AAACTCACGTGGTGTG,0.19 kcal/mol
17,GTAGGCACGTGTTTTA,0.05 kcal/mol
18,TGTGCCACGTGGAGGA,-0.11 kcal/mol
19,TGTATCACGTGCGGCG,0.21 kcal/mol
20,TTCGTCACGTGTATTA,0.06 kcal/mol
21,GTCATCACGTGGGTGA,0.04 kcal/mol
22,AATCACACGTGGTGGG,0.02 kcal/mol
23,CGGGGCACGTGGGATA,-0.08 kcal/mol
24,GAGTACACGTGTGGGA,0.19 kcal/mol
25,ATGGTCACGTGACTTG,0.38 kcal/mol

row,Sequence,relative binding free energy
1,GTTGGCACGTGGCTTA,-0.23 kcal/mol
2,GGGTGCACGTGCGGGC,-0.12 kcal/mol
3,GAGATCACGTGTAATG,0.26 kcal/mol
4,GTTAGCACGTGTCTGG,0.02 kcal/mol
5,GTAGTCACGTGGCTAG,-0.02 kcal/mol
6,CGTGTCACGTGACGGT,0.12 kcal/mol
7,AGGGACACGTGTGTAG,-0.09 kcal/mol
8,TATACCACGTGTTAGG,0.03 kcal/mol
9,ATTTGCACGTGGTCTT,-0.11 kcal/mol
10,ATTAACACGTGCATTG,0.03 kcal/mol
11,GTGGTCACGTGGATGT,0.24 kcal/mol
12,ATCGTCACGTGGGATG,0.01 kcal/mol
13,AATGTCACGTGATTGG,0.18 kcal/mol
14,GTGGGCACGTGAGGCA,0.21 kcal/mol
15,CTAGGCACGTGAGTAT,0.12 kcal/mol
16,AAGAGCACGTGTGGGG,-0.14 kcal/mol
17,TCTGGCACGTGGGGCC,-0.21 kcal/mol
18,GGGTGCACGTGGCGGA,-0.08 kcal/mol
19,TTCATCACGTGTATTT,0.11 kcal/mol
20,TAGTGCACGTGTGGAA,0.04 kcal/mol
21,ATTGCCACGTGTAGTT,0 kcal/mol
22,TTAGTCACGTGGATCA,0.11 kcal/mol
23,TATTTCACGTGCTGGC,0.17 kcal/mol
24,GTGATCACGTGGTACT,0.04 kcal/mol
25,AGAGTCACGTGATAGG,0.21 kcal/mol

row,Sequence,relative binding free energy
1,TTGGGCACGTGCTGCA,-0.22 kcal/mol
2,TTAATCACGTGGAGGT,0.17 kcal/mol
3,ATGGTCACGTGTATGT,0.09 kcal/mol
4,GTTATCACGTGTTCTG,0.11 kcal/mol
5,AGTGTCACGTGGATAT,0.08 kcal/mol
6,GGCGGCACGTGTCTTG,-0.11 kcal/mol
7,GGGGTCACGTGACGAG,0.24 kcal/mol
8,GGGAGCACGTGTTCGG,-0.08 kcal/mol
9,AGCTACACGTGGGTAT,-0.03 kcal/mol
10,TGTTTCACGTGAAGAT,0.37 kcal/mol
11,GGGTTCACGTGCGGCG,0.25 kcal/mol
12,ACAGGCACGTGGTATT,-0.26 kcal/mol
13,CGGGTCACGTGAAATG,0.22 kcal/mol
14,GGATCCACGTGTAGGG,0.13 kcal/mol
15,GCGGGCACGTGGGTAA,-0.23 kcal/mol
16,TGTCTCACGTGCAAGT,0.15 kcal/mol
17,GGTGACACGTGGAGTA,0.03 kcal/mol
18,GTGCGCACGTGTAATG,-0.04 kcal/mol
19,TAGCCCACGTGGTGGG,-0.1 kcal/mol
20,GTTTTCACGTGCGTTT,0.3 kcal/mol
21,CAGTTCACGTGATTTT,0.38 kcal/mol
22,TGTTACACGTGTGCGC,0.15 kcal/mol
23,ATCGTCACGTGAAGGA,0.35 kcal/mol
24,ATTGTCACGTGACGTG,0.25 kcal/mol
25,GCGGGCACGTGCGGTA,-0.15 kcal/mol

row,Sequence,relative binding free energy
1,CTATCCACGTGTAGGT,0.2 kcal/mol
2,GGGGGCACGTGATTTT,0.11 kcal/mol
3,TTTGGCACGTGGTCCT,-0.18 kcal/mol
4,TCGGGCACGTGTGTTA,0.04 kcal/mol
5,ATTTTCACGTGGTGAC,0.34 kcal/mol
6,CTGAACACGTGTGGGA,0.14 kcal/mol
7,TTTGTCACGTGGTAGT,-0.04 kcal/mol
8,GCATACACGTGGGGTT,-0.04 kcal/mol
9,GTTCGCACGTGGGTAA,-0.26 kcal/mol
10,TGTACCACGTGGCTGG,-0.16 kcal/mol
11,TGTCGCACGTGTGCGT,-0.08 kcal/mol
12,ATAGACACGTGGGGGA,-0.07 kcal/mol
13,GAGTACACGTGGGTTC,-0.03 kcal/mol
14,GGAGACACGTGCGGGA,-0.03 kcal/mol
15,AAATTCACGTGTAGTG,0.21 kcal/mol
16,CGTTTCACGTGTAAGT,0.28 kcal/mol
17,GGGTTCACGTGGATTG,0.32 kcal/mol
18,CTCATCACGTGGGTGG,0.07 kcal/mol
19,TGTAACACGTGTAGTA,0.11 kcal/mol
20,GTGATCACGTGCGAGG,-0.06 kcal/mol
21,TTTCACACGTGGGGGA,-0.07 kcal/mol
22,CTGTTCACGTGAGTTG,0.34 kcal/mol
23,CGGGACACGTGGTCGT,-0.04 kcal/mol
24,AGTTGCACGTGAGGTT,0.15 kcal/mol
25,AATGACACGTGAAATG,0.33 kcal/mol

row,Sequence,relative binding free energy
1,TGTTGCACGTGACTAG,-0.06 kcal/mol
2,GTTTTCACGTGGATTT,0.28 kcal/mol
3,TAATTCACGTGTGAGT,0.32 kcal/mol
4,CTTGGCACGTGAGTGC,0.26 kcal/mol
5,ATCTACACGTGGTTTT,-0.06 kcal/mol
6,TTGTGCACGTGCCAGG,-0.12 kcal/mol
7,GTTAGCACGTGTAGGT,0.02 kcal/mol
8,TGTCTCACGTGTTTCA,0.25 kcal/mol
9,ATTTGCACGTGGCGAT,-0.08 kcal/mol
10,GGGCACACGTGTTGTT,0.22 kcal/mol
11,GATTTCACGTGTGGAC,0.44 kcal/mol
12,CGTTTCACGTGCGGCG,0.31 kcal/mol
13,TGGTGCACGTGCTGTA,-0.16 kcal/mol
14,TGGTACACGTGGCGCT,0.11 kcal/mol
15,GTAATCACGTGCTGGA,0.15 kcal/mol
16,ATGTACACGTGACGGT,0.13 kcal/mol
17,GTACTCACGTGTAATG,0.24 kcal/mol
18,CTGAACACGTGGGATG,-0.05 kcal/mol
19,GAGTACACGTGTGTTA,0.13 kcal/mol
20,AGGGTCACGTGTCCGG,0.04 kcal/mol
21,TTTGGCACGTGGGACA,-0.27 kcal/mol
